The text below walks through data of publication PMC4336329 (PLoS ONE, 2015).

Among all 310,000 compounds or so, about 2,200 (0.71%) showed an effect of 50% or more. Effects have a minus sign here. The list shows a part of the results.

For this assay, the target named is human ether-à-go-go-related gene (hERG) potassium channel (human, UniProt Q12809). Kind of assay: primary screen, population patch clamp on CHO cells stably expressing hERG.
Chain of human ether-à-go-go-related gene (hERG) potassium channel (Q12809 whole entry, looked up): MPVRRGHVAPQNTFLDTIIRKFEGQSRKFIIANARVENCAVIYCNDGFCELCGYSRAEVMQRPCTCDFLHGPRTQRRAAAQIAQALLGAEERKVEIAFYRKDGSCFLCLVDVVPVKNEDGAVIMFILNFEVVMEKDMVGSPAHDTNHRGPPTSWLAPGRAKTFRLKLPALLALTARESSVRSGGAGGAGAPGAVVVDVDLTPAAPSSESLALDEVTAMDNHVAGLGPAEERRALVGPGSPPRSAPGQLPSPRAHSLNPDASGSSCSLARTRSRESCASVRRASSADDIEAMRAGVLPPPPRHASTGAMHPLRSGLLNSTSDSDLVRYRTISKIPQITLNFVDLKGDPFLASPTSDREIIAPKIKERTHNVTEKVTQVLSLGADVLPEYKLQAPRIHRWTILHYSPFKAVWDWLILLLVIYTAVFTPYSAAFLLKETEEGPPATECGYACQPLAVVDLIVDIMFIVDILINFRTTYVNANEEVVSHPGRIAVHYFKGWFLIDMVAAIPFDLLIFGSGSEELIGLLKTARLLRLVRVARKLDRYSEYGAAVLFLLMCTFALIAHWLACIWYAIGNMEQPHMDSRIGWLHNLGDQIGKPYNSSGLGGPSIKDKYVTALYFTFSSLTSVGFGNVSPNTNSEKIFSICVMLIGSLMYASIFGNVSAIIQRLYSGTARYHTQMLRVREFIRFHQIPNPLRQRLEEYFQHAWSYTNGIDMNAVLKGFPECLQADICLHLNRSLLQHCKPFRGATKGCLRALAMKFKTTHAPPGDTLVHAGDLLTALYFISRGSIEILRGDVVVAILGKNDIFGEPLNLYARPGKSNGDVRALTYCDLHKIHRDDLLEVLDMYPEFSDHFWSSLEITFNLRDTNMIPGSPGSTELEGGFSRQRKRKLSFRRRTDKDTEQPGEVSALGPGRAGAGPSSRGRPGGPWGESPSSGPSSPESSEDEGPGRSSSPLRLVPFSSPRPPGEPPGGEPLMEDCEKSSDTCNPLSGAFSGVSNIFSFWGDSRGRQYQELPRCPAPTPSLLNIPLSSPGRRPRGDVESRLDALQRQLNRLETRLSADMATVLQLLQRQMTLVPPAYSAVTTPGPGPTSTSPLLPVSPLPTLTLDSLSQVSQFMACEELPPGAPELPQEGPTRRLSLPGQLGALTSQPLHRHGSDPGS
For `Cc1ccc(S(=O)(=O)NCC2CCC(C(=O)NCc3ccco3)CC2)cc1` (stereo not drawn), the “hERG current change (%, negative = inhibition) at 1uM” value is -14.7%.

For `C=C1CCN([C@@H](CC(C)C)C(=O)NCCCc2ccccc2)S(=O)(=O)c2ccccc21`, the “hERG current change (%, negative = inhibition) at 1uM” value worked out at 1.55%. The same measure for `COc1cccc(NC(=O)CC2SC(=Nc3ccccc3)NC2=O)c1` (stereo not drawn): 8.25%; for `Cc1occc1C(=O)N1CCCc2ccccc21`: 8.98%. For `COc1ccccc1CCN1CCCC(CN(C)C(=O)CCC(N)=O)C1` (stereo not drawn) the value was 16.9%; for `CC1CCC(C(C)C)C(OC(=O)COC(=O)c2ccc(N)cc2)C1` (stereo not drawn), 8.82%. The same measure for `O=C(O)C1CCCCN1S(=O)(=O)c1ccccc1` (stereo not drawn): 9.44%; for `CC(C)(C)NC(=O)c1cc2c(ccc3ccccc32)oc1=O`: 20%. As to `CCOc1cc(C2C(C(=O)c3ccccc3)=C(C(=O)OC)Nc3nnnn32)ccc1O` (stereo not drawn), the “hERG current change (%, negative = inhibition) at 1uM” value was 9.59%.

In the case of `Clc1ccc2nc(SCc3nnc(-c4ccccc4)o3)[nH]c2c1`, the “hERG current change (%, negative = inhibition) at 1uM” value is 0.808%. `Cc1ccc(NC(=O)COc2ccc(Br)cc2C)cc1`: the “hERG current change (%, negative = inhibition) at 1uM” value is -1.08%. The same measure for `CCn1c(SCC(=O)c2ccc3ccccc3c2)nnc1-c1cccs1`: -0.175%; for `NC(=O)COc1ncnc2scc(-c3ccc(F)cc3)c12`: 9.57%. For `O=C(O)c1ccc(CSc2nnc(Cc3ccccc3)o2)cc1` the value was -1.82%.

As for `CCCCCN(C(=O)CCC(=O)OCc1ccccc1C)c1c(N)n(CCCC)c(=O)[nH]c1=O`, the “hERG current change (%, negative = inhibition) at 1uM” value worked out at 7.65%.

As to `COc1cc(C)nc(N2CCCC(C(=O)Nc3cccc(Cl)c3C)C2)n1` (stereo not drawn), the “hERG current change (%, negative = inhibition) at 1uM” value came to 5.28%. Consider `COc1ccc(-c2noc(CCC(=O)Nc3cccc(C)c3)n2)cc1`, for which the “hERG current change (%, negative = inhibition) at 1uM” value is 8.39%.

As for `Cc1cc(C)cc(OCC(=O)Nc2cc(C)on2)c1`, the “hERG current change (%, negative = inhibition) at 1uM” value worked out at 15.8%. For `CSc1ccc(S(=O)(=O)NCC(=O)OCC(=O)NCC2CCCO2)cc1[N+](=O)[O-]` (stereo not drawn) the value was 9.64%. For `CCCCn1c(C)csc1=Nc1cccnc1` the value was 7.6%.

As for `O=C(COC(=O)/C=C/c1ccc(Cl)cc1)Nc1ccccc1-c1ccccc1`, the “hERG current change (%, negative = inhibition) at 1uM” value was 13.9%. Consider `COc1ccc(CN(C(=O)c2nsc(Cl)c2Cl)C(C(=O)NC2CCCC2)c2ccc(OC)cc2)cc1` (stereo not drawn), for which the “hERG current change (%, negative = inhibition) at 1uM” value worked out at 9.92%. For `O=C(C1CC1)N1CCc2cc(Br)cc(S(=O)(=O)NCc3ccco3)c21` the value was -20.1%; for `CCOC(=O)C1CCCN(S(=O)(=O)c2ccc3c(c2)N(C)C(=O)CC(=O)N3C)C1` (stereo not drawn), 11.1%. For `COc1ccc(NC(=O)c2cn(CCC#N)nc2-c2cccc([N+](=O)[O-])c2)cc1` the value was 7.25%; for `CC(C)Oc1c(Cl)cc(CNC(C)(C)CO)cc1Cl`, 12.8%. For `Cc1cccc2nc(CNc3ccc(F)cc3)cn12` the value was 0.326%.

Consider `CSc1ccccc1C(=O)N1CCN(c2ccc(F)cc2)CC1`, for which the “hERG current change (%, negative = inhibition) at 1uM” value is -8.31%. The same measure for `COC(=O)COc1ccc(S(=O)(=O)NC2CCCCCC2)cc1`: 9.53%; for `COc1cc(/C=C(\C#N)c2ccccn2)ccc1OCC(=O)Nc1cccc(C(F)(F)F)c1.Cl`: 5.79%. The same measure for `Cn1c(=O)n(CCO)c(=O)c2c1nc(Br)n2Cc1ccccc1`: 5.39%. For `O=C(CCc1ccccc1)Nc1nnc(-c2ccccn2)o1` the value was 5.94%. In the case of `Cc1ccc(CN2CCSc3ccc(C(=O)NCC4CCCO4)cc32)cc1` (stereo not drawn), the “hERG current change (%, negative = inhibition) at 1uM” value turned out to be 6.44%.

As to `Cc1ccc(NC(=O)c2c(C)nc3ccccn23)cc1C`, the “hERG current change (%, negative = inhibition) at 1uM” value worked out at 7.72%. The same measure for `COc1ccc(-n2c(=O)/c(=C\c3cccs3)s/c2=C(/C#N)C(=O)NCCN2CCOCC2)cc1`: 14.3%.

As for `CCOC(=O)C1=C(C)OC(N)=C(C#N)C1c1ccc(OC)c(CSc2ccccn2)c1` (stereo not drawn), the “hERG current change (%, negative = inhibition) at 1uM” value is 5.22%.

Consider `Cc1ccccc1NC(=O)CNc1ccccc1N1CCCCC1`, for which the “hERG current change (%, negative = inhibition) at 1uM” value was determined as 6.7%. The same measure for `CSc1nc(-c2ccco2)nn1C(=O)Cc1ccccc1`: 7.05%; for `Nc1nc(SCC(=O)Nc2ccc(Oc3ccccc3)cc2)n[nH]1`: 6.43%. For `O=C(c1cc(COc2cccc(C(F)(F)F)c2)on1)N1CCC(Oc2cccnc2)CC1` the value was 7.8%. For `Cc1cccc(C(=O)Nc2ccc(C(=O)N/N=C/c3cccc(C)n3)cc2)c1` the value was 17.5%; for `CCCCn1c(N)c(N(CCC(C)C)C(=O)c2[nH]c(C)c(C(=O)OCC)c2C)c(=O)[nH]c1=O`, -2.37%; for `O=C(CCC1CCCC1)N1CCN(C(=O)C2CC2)CC1`, 11.1%. For `O=C(Nc1ccc(Cl)c(Cl)c1)OCCNC(=O)c1ccncc1`, the “hERG current change (%, negative = inhibition) at 1uM” value is listed as 11.5%. For `Cc1ccc(C2(c3ccccc3)NC(=O)N(CC(=O)N3CC(=O)Nc4ccccc43)C2=O)cc1C` (stereo not drawn), the “hERG current change (%, negative = inhibition) at 1uM” value came to 2.1%.
